# From the supplement of paper PMC8728848
# This is one part of the list.
# B1: MGL6A (Homo sapiens) (protein)
# chain: MTRTYENFQYLENKVKVQGFKNGPLPLQSLLQRLCSGPCHLLLSLGLGLLLLVIICVVGFQNSKFQRDLVTLRTDFSNFTSNTVAEIQALTSQGSSLEETIASLKAEVEGFKQERQAVHSEMLLRVQQLVQDLKKLTCQVATLNNNGEEASTEGTCCPVNWVEHQDSCYWFSHSGMSWAEAEKYCQLKNAHLVVINSREEQNFVQKYLGSAYTWMGLSDPEGAWKWVDGTDYATGFQNWKPGQPDDWQGHGLGGGEDCAHFTPDGRWNDDVCQRPYHWVCEAGLGQTSQESH
# How the values were obtained:
# Assay in all cases: glycan array binding signal (z-score within array); higher = stronger binding
# Details in all cases: glycan notation: IUPAC condensed, linker removed; mutation: H262T
# [1] = target: Neu5Ac(a2-6)Gal(b1-4)GlcNAc(b1-2)Man(a1-3)[GlcNAc(b1-4)][Neu5Ac(a2-6)Gal(b1-4)GlcNAc(b1-2)Man(a1-6)]Man(b1-4)GlcNAc(b1-4)GlcNAc
# How it was run: (§1)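 Glycan array data came from 3228 arrays in the Consortium for Functional Glycomics database, and only arrays with an available protein sequence were kept. Glycan names were put into IUPAC-condensed notation, and columns mapping to the same glycan were averaged. The binding signal is a within-array Z-score, averaged across arrays of one protein sequence run at different concentrations or buffers and across linkers. A negative Z-score can be read as non-binding.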
# [2] = target: Neu5Ac(a2-6)Gal(b1-4)GlcNAc(b1-2)Man(a1-3)[Man(a1-6)]Man(b1-4)GlcNAc(b1-4)GlcNAc
# How it was run: as §1
# [3] = target: Neu5Ac(a2-6)Gal(b1-4)GlcNAc(b1-2)Man(a1-3)[Neu5Ac(a2-3)Gal(b1-4)GlcNAc(b1-2)Man(a1-6)]Man(b1-4)GlcNAc(b1-4)GlcNAc
# How it was run: as §1
# [4] = target: Neu5Ac(a2-6)Gal(b1-4)GlcNAc(b1-2)Man(a1-3)[Neu5Ac(a2-6)Gal(b1-4)GlcNAc(b1-2)Man(a1-6)]Man(b1-4)GlcNAc(b1-4)GlcNAc
# How it was run: as §1
# [5] = target: Neu5Ac(a2-6)Gal(b1-4)GlcNAc(b1-2)Man(a1-3)[Neu5Ac(a2-6)Gal(b1-4)GlcNAc(b1-2)Man(a1-6)]Man(b1-4)GlcNAc(b1-4)[Fuc(a1-6)]GlcNAc
# How it was run: as §1
# [6] = target: Neu5Ac(a2-6)Gal(b1-4)GlcNAc(b1-2)Man(a1-6)Man(b1-4)GlcNAc(b1-4)GlcNAc
# How it was run: as §1
# [7] = target: Neu5Ac(a2-6)Gal(b1-4)GlcNAc(b1-2)Man(a1-6)[Gal(b1-4)GlcNAc(b1-2)Man(a1-3)]Man(b1-4)GlcNAc(b1-4)GlcNAc
# How it was run: as §1
# [8] = target: Neu5Ac(a2-6)Gal(b1-4)GlcNAc(b1-2)Man(a1-6)[GlcNAc(b1-2)Man(a1-3)]Man(b1-4)GlcNAc(b1-4)GlcNAc
# How it was run: as §1
# [9] = target: Neu5Ac(a2-6)Gal(b1-4)GlcNAc(b1-2)Man(a1-6)[Man(a1-3)]Man(b1-4)GlcNAc(b1-4)GlcNAc
# How it was run: as §1
# [10] = target: Neu5Ac(a2-6)Gal(b1-4)GlcNAc(b1-2)[Neu5Ac(a2-6)Gal(b1-4)GlcNAc(b1-4)]Man(a1-3)[GlcNAc(b1-4)][Neu5Ac(a2-6)Gal(b1-4)GlcNAc(b1-2)[Neu5Ac(a2-6)Gal(b1-4)GlcNAc(b1-6)]Man(a1-6)]Man(b1-4)GlcNAc(b1-4)GlcNAc
# How it was run: as §1
# [11] = target: Neu5Ac(a2-6)Gal(b1-4)GlcNAc(b1-2)[Neu5Ac(a2-6)Gal(b1-4)GlcNAc(b1-4)]Man(a1-3)[GlcNAc(b1-4)][Neu5Ac(a2-6)Gal(b1-4)GlcNAc(b1-4)Man(a1-6)]Man(b1-4)GlcNAc(b1-4)GlcNAc
# How it was run: as §1
# [12] = target: Neu5Ac(a2-6)Gal(b1-4)GlcNAc(b1-2)[Neu5Ac(a2-6)Gal(b1-4)GlcNAc(b1-6)]Man(a1-6)[Neu5Ac(a2-6)Gal(b1-4)GlcNAc(b1-2)Man(a1-3)][GlcNAc(b1-4)]Man(b1-4)GlcNAc(b1-4)GlcNAc
# How it was run: as §1
# [13] = target: Neu5Ac(a2-6)Gal(b1-4)GlcNAc(b1-3)Gal(b1-3)GlcNAc
# How it was run: as §1
# [14] = target: Neu5Ac(a2-6)Gal(b1-4)GlcNAc(b1-3)Gal(b1-4)GlcNAc
# How it was run: as §1
# [15] = target: Neu5Ac(a2-6)Gal(b1-4)GlcNAc(b1-3)Gal(b1-4)GlcNAc(b1-2)Man(a1-3)[Neu5Ac(a2-6)Gal(b1-4)GlcNAc(b1-3)Gal(b1-4)GlcNAc(b1-2)Man(a1-6)]GalNAc
# How it was run: as §1
# [16] = target: Neu5Ac(a2-6)Gal(b1-4)GlcNAc(b1-3)Gal(b1-4)GlcNAc(b1-3)Gal(b1-4)GlcNAc
# How it was run: as §1
# [17] = target: Neu5Ac(a2-6)Gal(b1-4)GlcNAc(b1-3)Gal(b1-4)GlcNAc(b1-3)Gal(b1-4)GlcNAc(b1-2)Man(a1-3)[Neu5Ac(a2-6)Gal(b1-4)GlcNAc(b1-3)Gal(b1-4)GlcNAc(b1-3)Gal(b1-4)GlcNAc(b1-2)Man(a1-6)]GalNAc
# How it was run: as §1
# [18] = target: Neu5Ac(a2-6)Gal(b1-4)GlcNAc(b1-3)Gal(b1-4)GlcNAc(b1-3)GalNAc
# How it was run: as §1
# [19] = target: Neu5Ac(a2-6)Gal(b1-4)GlcNAc(b1-3)Gal(b1-4)GlcNAc(b1-3)[Neu5Ac(a2-6)Gal(b1-4)GlcNAc(b1-3)Gal(b1-4)GlcNAc(b1-6)]GalNAc
# How it was run: as §1
# [20] = target: Neu5Ac(a2-6)Gal(b1-4)GlcNAc(b1-3)Gal(b1-4)GlcNAc(b1-6)[Gal(b1-3)]GalNAc
# How it was run: as §1
# [21] = target: Neu5Ac(a2-6)Gal(b1-4)GlcNAc(b1-3)Gal(b1-4)[Fuc(a1-3)]GlcNAc(b1-3)Gal(b1-4)[Fuc(a1-3)]GlcNAc
# How it was run: as §1
# [22] = target: Neu5Ac(a2-6)Gal(b1-4)GlcNAc(b1-3)GalNAc
# How it was run: as §1
# [23] = target: Neu5Ac(a2-6)Gal(b1-4)GlcNAc(b1-3)[Neu5Ac(a2-6)Gal(b1-4)GlcNAc(b1-6)]GalNAc
# How it was run: as §1
# [24] = target: Neu5Ac(a2-6)Gal(b1-4)GlcNAc(b1-6)GalNAc
# How it was run: as §1
# [25] = target: Neu5Ac(a2-6)Gal(b1-4)GlcNAc(b1-6)[Gal(b1-3)GlcNAc(b1-3)]Gal(b1-4)Glc
# How it was run: as §1
# [26] = target: Neu5Ac(a2-6)Gal(b1-4)GlcNAc(b1-6)[Gal(b1-3)]GalNAc
# How it was run: as §1
# [27] = target: Neu5Ac(a2-6)Gal(b1-4)GlcNAc6S
# How it was run: as §1
# [28] = target: Neu5Ac(a2-6)GalNAc
# How it was run: as §1
# [29] = target: Neu5Ac(a2-6)GalNAc(b1-4)GlcNAc
# How it was run: as §1
# [30] = target: Neu5Ac(a2-6)GalNAc(b1-4)GlcNAc6S
# How it was run: as §1
# [31] = target: Neu5Ac(a2-6)GlcNAc(b1-4)GlcNAc
# How it was run: as §1
binder,measurement,setting,value
B1,glycan array binding signal (z-score),[1],-0.176
same,glycan array binding signal (z-score),[2],-0.181
same,glycan array binding signal (z-score),[3],-0.176
same,glycan array binding signal (z-score),[4],-0.173
same,glycan array binding signal (z-score),[5],-0.16
same,glycan array binding signal (z-score),[6],-0.173
same,glycan array binding signal (z-score),[7],-0.172
same,glycan array binding signal (z-score),[8],-0.173
same,glycan array binding signal (z-score),[9],-0.173
same,glycan array binding signal (z-score),[10],-0.197
same,glycan array binding signal (z-score),[11],-0.188
same,glycan array binding signal (z-score),[12],-0.178
same,glycan array binding signal (z-score),[13],-0.175
same,glycan array binding signal (z-score),[14],-0.181
same,glycan array binding signal (z-score),[15],-0.171
same,glycan array binding signal (z-score),[16],-0.176
same,glycan array binding signal (z-score),[17],-0.159
same,glycan array binding signal (z-score),[18],-0.252
same,glycan array binding signal (z-score),[19],-0.172
same,glycan array binding signal (z-score),[20],-0.166
same,glycan array binding signal (z-score),[21],-0.166
same,glycan array binding signal (z-score),[22],-0.169
same,glycan array binding signal (z-score),[23],-0.168
same,glycan array binding signal (z-score),[24],-0.171
same,glycan array binding signal (z-score),[25],-0.178
same,glycan array binding signal (z-score),[26],-0.176
same,glycan array binding signal (z-score),[27],-0.177
same,glycan array binding signal (z-score),[28],0.012
same,glycan array binding signal (z-score),[29],-0.159
same,glycan array binding signal (z-score),[30],-0.176
same,glycan array binding signal (z-score),[31],-0.175
